# In PubChem BioAssay AID686978 (National Center for Advancing Translational Sciences (NCATS), 2013):
# Several values for one entry are separate records, joined by “and”; a condition that tells them apart may be missing. Equal entries are not always repeated. Hit rate of the full screen: of about 420,000 compounds, about 64,000 (15%) were called active. Inconclusive results, whose numbers are uncertain, are shown with a selection of clear calls. The call rests on the fitted dose curve; in most records, active means well fitted inhibition curve with a large enough effect; inconclusive means small, poorly fitted or top-dose-only effect; inactive means flat fitted curve, though single readings scatter. Potencies of inconclusive entries are left out as doubtful fits.
# Assay: qHTS for Inhibitors of human tyrosyl-DNA phosphodiesterase 1 (TDP1): qHTS in cells in absence of CPT; further: nearly all actives have a fitted effect of over 55% in size
# Details: DT40 Tdp1-/- hTDP1 cells, no CPT, ATP luminescence, 48 h; activity change, negative = growth inhibition: at 46.2 µM (top of the series) unless noted
# Procedure, shortened: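 Growth of hTDP1-complemented DT40 Tdp1-knockout cells is measured by ATP luminescence after at least 48 hr compound exposure at 37 °C, with DMSO substituting for the 20 nM CPT used in the parallel screen.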
# On the % scale 0 is the no-effect control and ±100 the full control effect; potency means the concentration at half of the fitted maximal effect; tags describe the fitted curve by direction and shape.
SMILES,Potency,"activity change, negative = growth inhibition"
Cc1ccc2nc3c(nc2c1)-c1ccccc1C3=O,"inconclusive [inhibitor, partial curve]",
Cc1ccc(S(=O)(=O)Cn2nnnc2CN(Cc2ccco2)CC2CCCO2)cc1 (stereo not drawn),,inactive: -6.85%
Cn1cc(S(=O)(=O)N2CCC(Cc3ccccc3)CC2)c(=O)n(C)c1=O,"inconclusive [inhibitor, single point]",
COc1ccc(Br)cc1S(=O)(=O)NNC(=O)c1c(C)nc2ccccn12,"inconclusive [inhibitor, single point]",
O=C(NC1CCCCCCC1)C1c2ccccc2C(=O)N1Cc1cccs1 (stereo not drawn),"inconclusive [inhibitor, single point]",
CCCCCCCCCC(=O)Nn1cnc2ccccc2c1=O,,inactive: -29.2%
COc1ccc2[nH]cc(CCNc3ncncc3-c3ccc(N(C)C)cc3)c2c1,"inconclusive [inhibitor, single point]",
O=C(Nc1cccc(C(F)(F)F)c1)C1CCCN1S(=O)(=O)c1cccc2cccnc12 (stereo not drawn),active: 16.4 µM,
O=C1NC[C@@H](CCCCN2C[C@H](Cc3ccc(O)cc3)N(CCc3ccc(O)cc3)C(=O)C2=O)N(Cc2ccccc2)C1=O,,inactive: -29.5%
CCN(CC)C(=O)CSc1nc(-c2cccs2)cc(-c2cccs2)c1C#N,"inconclusive [inhibitor, single point]",
COC(=O)c1cccc(Nc2ncnc3sccc23)c1,"inconclusive [inhibitor, single point]",
CCCc1nnc(SCC(=O)N2CCCCC2)n1CCCOC,,inactive: -13.3%
O=C(N/N=C/c1ccncc1)c1ccc(NS(=O)(=O)c2cccs2)cc1,,inactive: 3.69%
Nc1nc(SCC(=O)Nc2ccc([N+](=O)[O-])cc2)[nH]c(=O)c1NC(=O)c1ccc(Br)o1,,inactive: 0.0342%
COCCN(CCOC)C(=O)c1sc2nc(-c3ccccc3)cn2c1C,"inconclusive [inhibitor, partial curve]",
COc1ccc2nc(C)cc(Nc3ccc(C)cc3)c2c1,"inconclusive [inhibitor, single point]",
COc1ccc(-c2cn3nc(N4CCC(C(=O)Nc5cccc(C)c5C)CC4)sc3n2)cc1,active: 11.6 µM,
Cc1cc([N+](=O)[O-])ccc1NC1CCCC1,,inactive: 1.28%
COc1ccc(N(CC(=O)N2CCN(c3cccc(C)c3C)CC2)S(=O)(=O)c2c(C)noc2C)cc1,active: 20.6 µM and active: 16.4 µM,
O=C(NC1CCCCCC1)C1CCN(C(=O)Cc2ccccc2)CC1,"inconclusive [inhibitor, single point]",
COc1ccc2nc(N(Cc3cccnc3)C(=O)c3ccc4c(c3)OCCO4)sc2c1,"inconclusive [inhibitor, partial curve]",
CC1=C(C(=O)Nc2ccc(CC(=O)NCc3ccccc3C)cc2)SCCO1,"inconclusive [inhibitor, single point]",
S=C(NCCCN1CCOCC1)NC1CC1,,inactive: 4.21%
CCOc1cc(N2CCOCC2)c(OCC)cc1NC(=O)COC(=O)CCOc1ccc(C)cc1,"inconclusive [inhibitor, single point]",
CCN(CC)CCN1C(=O)C(=O)/C(=C(/O)c2ccc(OC(C)C)cc2)C1c1cccs1 (stereo not drawn),,inactive: -8.21%

SMILES,Potency,"activity change, negative = growth inhibition"
Fc1ccc(-c2ccc3nccn3c2)cc1Cl,"inconclusive [inhibitor, single point]",
CN(C(=O)COC(=O)c1ccc2c(c1)OCO2)C1CCS(=O)(=O)C1 (stereo not drawn),,inconclusive: -30.7% [inhibitor]
Cc1ccc(CNS(=O)(=O)c2ccc3c(c2)CCN3S(C)(=O)=O)cc1,"inconclusive [inhibitor, partial curve]",
COC(=O)c1c(NC(=O)c2nn(C)cc2Cl)sc2c1CCCC2,"inconclusive [inhibitor, single point]",
COc1ccc(NC(=O)CC2(Cc3ccccc3)CCOC(C)(C)C2)cc1 (stereo not drawn),"inconclusive [inhibitor, single point]",
Cc1cc(C(=O)N/N=C/c2cc(Br)cc([N+](=O)[O-])c2O)c2ccccc2n1,"inconclusive [inhibitor, single point]",
Cc1ccc(-c2noc(CCC(N)=O)n2)cc1,,inactive: -15.8%
CC1CN(CC(=O)Nc2nc(-c3ccc(Cl)cc3)cs2)CC(C)O1 (stereo not drawn),active: 23.1 µM,
COCCN(CC(=O)Nc1cccc(C)c1C)C(=O)c1cc(-c2ccncc2)nc2ccccc12,"inconclusive [inhibitor, partial curve]",
CCCSc1ncc(Cl)c(C(=O)Nc2sc3c(c2C(=O)NCCOC)CCCC3)n1,"inconclusive [inhibitor, partial curve]",
CC(C)(C)c1ccc2c(c1)OC(C(=O)N/N=C/c1ccc([N+](=O)[O-])o1)CO2 (stereo not drawn),active: 11.6 µM,
O=C(NCCNC(=O)Nc1ccc(Cl)cc1)Nc1ccc(Cl)cc1,,inactive: -8.94%
Cc1ccn2c(C(=O)CSc3ccccc3Cl)c(C)nc2c1,"inconclusive [inhibitor, full curve]",
CC1Cc2ccccc2N1C(=O)C12CCC(C)(C(=O)C1)C2(C)C (stereo not drawn),"inconclusive [inhibitor, single point]",
COc1ccc(-c2[nH]ncc2CN2CCN(Cc3cccs3)CC2)c(F)c1,,inconclusive: -31.7% [inhibitor]
COCOc1cccc(CN2CCC2(C)C(=O)Nc2ccc3c(c2)OCO3)c1 (stereo not drawn),"inconclusive [inhibitor, single point]",
O=C(NCCCn1ccnc1)c1ccc(-c2cccc(C(F)(F)F)c2)o1,"inconclusive [inhibitor, single point]",
CCCCOC(=O)c1ccc(NC(=O)c2cc3c(=O)n4cccc(C)c4nc3n2C)cc1,"inconclusive [inhibitor, full curve]",
O=S(=O)(NCCc1csc(-c2cccnc2)n1)c1ccc2c(c1)OCCO2,,inactive: -23.3%
O=C1CCCC(NCCCCCCNC2=C([N+](=O)[O-])C(=O)CCC2)=C1[N+](=O)[O-],,inactive: -8.06%
Cc1ccc2c(c1)N(CC(=O)N1CCCC(C)C1)C(=O)CO2 (stereo not drawn),,inactive: -15.8%
C#CCNC(=O)c1ccc2sc([C@H]3C[C@H](O)[C@@H](CO)O3)nc2c1,,inactive: -9.3%
COc1cc(NC(=O)Cn2nc(C(F)(F)F)c3c2CCCC3)c(OC)cc1Cl,active: 16.4 µM,
O=C1CCCC2=C1C(c1ccc(Br)cc1)c1c([nH]c(=S)[nH]c1=O)N2 (stereo not drawn),,inactive: -11%
CC(C)(C)c1ccc(OCCCn2ccnc2)cc1,"inconclusive [inhibitor, single point]",

SMILES,Potency,"activity change, negative = growth inhibition"
COc1ccc(CNC(=O)CN(C)Cc2ccc(SC)cc2)cc1,"inconclusive [inhibitor, single point]",
Fc1ccccc1-c1nc(N2CCCCC2)c2ccccc2n1,"inconclusive [inhibitor, single point]",
CCCN(CCC)C(=O)c1cc([N+](=O)[O-])cc2c1-c1ccc([N+](=O)[O-])cc1C2=C(C#N)C#N,active: 2.91 µM,
O=C(NCC(c1ccc(F)cc1)N1CCOCC1)c1nn(-c2ccccc2)c(=O)c2ccccc12 (stereo not drawn),active: 20.6 µM,
Cc1[nH]n(-c2ccc(F)cc2)c(=O)c1/C=N/c1sc2c(c1C#N)CCCC2,"inconclusive [inhibitor, partial curve, poor fit]",
Cc1ccc(S(=O)(=O)NCC(=O)N2CCCCC2)cc1,,inactive: 0.585%
Cc1ccc(CNS(=O)(=O)c2ccc3c(c2)n(C)c(=O)n3C)cc1,"inconclusive [inhibitor, partial curve]",
CN(C(=O)COC(=O)/C=C/c1cn(-c2ccccc2)nc1-c1ccc2c(c1)OCCO2)C1CCS(=O)(=O)C1 (stereo not drawn),active: 14.6 µM,
COCCNC(=O)c1ccccc1-c1ccccc1C(=O)O,"inconclusive [inhibitor, full curve]",
COc1ccc(Cc2nnc(N/N=C/c3ccc(Br)cc3)[nH]c2=O)cc1OC,,inactive: 1.98%
Cc1ccc2cc(CCNC(=O)c3cccc([N+](=O)[O-])c3)c(=O)[nH]c2c1C,active: 16.4 µM,
COCc1c(C(=O)OCC(=O)NCc2ccco2)oc2ccccc12,,inactive: -26.2%
Cn1ncc2c(N3CCN(c4ccc(Cl)c(Cl)c4)CC3)ncnc21,active: 7.31 µM,
COc1cccc(C2=NOC(C(=O)Nc3ccccc3SC)C2)c1 (stereo not drawn),"inconclusive [inhibitor, partial curve]",
CN1C(=O)C(Cc2cnc[nH]2)NC1=S (stereo not drawn),,inactive: -14%
CC(C)n1cc(/C(N)=N/O)c(=O)n(Cc2ccccc2)c1=O,,inactive: -2.25%
Cc1c(NC(=O)CSc2cccc3cccnc23)c(=O)n(-c2ccccc2)n1C,active: 23.1 µM,
COc1cccc(-c2nnc3sc(-c4ccccn4)nn23)c1,active: 23.1 µM,
COc1cc(NC(=O)C2CCN(S(=O)(=O)c3ccc(N4CCCC4=O)cc3)CC2)cc(OC)c1,"inconclusive [inhibitor, single point]",
Cc1ccc(NC(=O)CN(C)C(=O)C(c2ccccc2)c2ccccc2)cc1,"inconclusive [inhibitor, partial curve]",
O=C(NCc1nc2ccccc2[nH]1)c1cccc(S(=O)(=O)N2CCCCC2)c1,"inconclusive [inhibitor, single point]",
COc1ccc(C2=NS(=O)(=O)N(C)C(C(=O)NCc3ccco3)=C2)cc1OC,,inactive: -27%
O=C(CSc1nc(=O)[nH]c2c1CCCC2)Nc1ccccc1C(F)(F)F,"inconclusive [inhibitor, single point]",
